# From the supplement of paper PMC8728848
# The other results are listed elsewhere or left out.
# Experiments:
# Test in all cases: glycan array binding signal (z-score within array); higher = stronger binding
# Settings in all cases: glycan notation: IUPAC condensed, linker removed; mutation: R343V
# [1] = molecular target: Neu5Ac(a2-3)Gal(b1-3)[Fuc(a1-4)]GlcNAc(b1-3)Gal(b1-4)[Fuc(a1-3)]GlcNAc
# In short: (§1)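 Negative Z-scores can be read as non-binding. The Z-score is calculated within each array and then averaged across arrays of one protein sequence at different concentrations or buffers and across linkers. Arrays, 3228 in all, were curated from the Consortium for Functional Glycomics database and kept only where the protein sequence was available.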
# [2] = molecular target: Neu5Ac(a2-3)Gal(b1-3)[Neu5Ac(a2-3)Gal(b1-4)]GlcNAc
# In short: as §1
# [3] = molecular target: Neu5Ac(a2-3)Gal(b1-3)[Neu5Ac(a2-6)]GalNAc
# In short: as §1
# Neu5Ac(a2-3)Gal(b1-4)Glc = molecular target: Neu5Ac(a2-3)Gal(b1-4)Glc
# In short: as §1
# [4] = molecular target: Neu5Ac(a2-3)Gal(b1-4)GlcNAc
# In short: as §1
# [5] = molecular target: Neu5Ac(a2-3)Gal(b1-4)GlcNAc(b1-2)Man(a1-3)[GlcNAc(b1-2)Man(b1-4)GlcNAc(b1-2)Man(a1-6)]Man(b1-4)GlcNAc(b1-4)GlcNAc
# In short: as §1
# [6] = molecular target: Neu5Ac(a2-3)Gal(b1-4)GlcNAc(b1-2)Man(a1-3)[Neu5Ac(a2-6)Gal(b1-4)GlcNAc(b1-2)Man(a1-6)]Man(b1-4)GlcNAc(b1-4)GlcNAc
# In short: as §1
# [7] = molecular target: Neu5Ac(a2-3)Gal(b1-4)GlcNAc(b1-3)Gal(b1-3)GlcNAc
# In short: as §1
# [8] = molecular target: Neu5Ac(a2-3)Gal(b1-4)GlcNAc(b1-3)Gal(b1-4)GlcNAc
# In short: as §1
# [9] = molecular target: Neu5Ac(a2-3)Gal(b1-4)GlcNAc(b1-3)Gal(b1-4)GlcNAc(b1-3)Gal(b1-4)GlcNAc
# In short: as §1
# [10] = molecular target: Neu5Ac(a2-3)Gal(b1-4)GlcNAc(b1-3)Gal(b1-4)[Fuc(a1-3)]GlcNAc
# In short: as §1
# [11] = molecular target: Neu5Ac(a2-3)Gal(b1-4)GlcNAc(b1-6)[Gal(b1-3)]GalNAc
# In short: as §1
# [12] = molecular target: Neu5Ac(a2-3)Gal(b1-4)GlcNAc(b1-6)[Neu5Ac(a2-3)Gal(b1-3)]GalNAc
# In short: as §1
# [13] = molecular target: Neu5Ac(a2-3)Gal(b1-4)GlcNAc6S
# In short: as §1
# [14] = molecular target: Neu5Ac(a2-3)Gal(b1-4)[Fuc(a1-3)]GlcNAc
# In short: as §1
# [15] = molecular target: Neu5Ac(a2-3)Gal(b1-4)[Fuc(a1-3)]GlcNAc(b1-3)Gal
# In short: as §1
# [16] = molecular target: Neu5Ac(a2-3)Gal(b1-4)[Fuc(a1-3)]GlcNAc(b1-3)Gal(b1-4)GlcNAc
# In short: as §1
# [17] = molecular target: Neu5Ac(a2-3)Gal(b1-4)[Fuc(a1-3)]GlcNAc(b1-3)Gal(b1-4)[Fuc(a1-3)]GlcNAc(b1-3)Gal(b1-4)[Fuc(a1-3)]GlcNAc
# In short: as §1
# [18] = molecular target: Neu5Ac(a2-3)Gal(b1-4)[Fuc(a1-3)]GlcNAc(b1-6)[Gal(b1-3)]GalNAc
# In short: as §1
# [19] = molecular target: Neu5Ac(a2-3)Gal(b1-4)[Fuc(a1-3)]GlcNAc6S
# In short: as §1
# [20] = molecular target: Neu5Ac(a2-3)Gal6S(b1-4)GlcNAc
# In short: as §1
# [21] = molecular target: Neu5Ac(a2-3)Gal6S(b1-4)[Fuc(a1-3)]GlcNAc
# In short: as §1
# Neu5Ac(a2-3)GalNAc = molecular target: Neu5Ac(a2-3)GalNAc
# In short: as §1
# [22] = molecular target: Neu5Ac(a2-3)GalNAc(b1-4)GlcNAc
# In short: as §1
# [23] = molecular target: Neu5Ac(a2-3)[GalNAc(b1-4)]Gal(b1-4)Glc
# In short: as §1
# [24] = molecular target: Neu5Ac(a2-3)[GalNAc(b1-4)]Gal(b1-4)GlcNAc
# In short: as §1
# [25] = molecular target: Neu5Ac(a2-3)[Neu5Ac(a2-6)]GalNAc
# In short: as §1
# Neu5Ac(a2-6)Gal = molecular target: Neu5Ac(a2-6)Gal
# In short: as §1
# Neu5Ac(a2-6)Gal(b1-4)Glc = molecular target: Neu5Ac(a2-6)Gal(b1-4)Glc
# In short: as §1
# [26] = molecular target: Neu5Ac(a2-6)Gal(b1-4)GlcNAc
# In short: as §1
# [27] = molecular target: Neu5Ac(a2-6)Gal(b1-4)GlcNAc(b1-2)Man(a1-3)[Gal(b1-4)GlcNAc(b1-2)Man(a1-6)]Man(b1-4)GlcNAc(b1-4)GlcNAc
# In short: as §1
# [28] = molecular target: Neu5Ac(a2-6)Gal(b1-4)GlcNAc(b1-2)Man(a1-3)[GlcNAc(b1-2)Man(a1-6)]Man(b1-4)GlcNAc(b1-4)GlcNAc
# In short: as §1
# [29] = molecular target: Neu5Ac(a2-6)Gal(b1-4)GlcNAc(b1-2)Man(a1-3)[GlcNAc(b1-2)Man(b1-4)GlcNAc(b1-2)Man(a1-6)]Man(b1-4)GlcNAc(b1-4)GlcNAc
# In short: as §1
# [30] = molecular target: Neu5Ac(a2-6)Gal(b1-4)GlcNAc(b1-2)Man(a1-3)[Neu5Ac(a2-6)Gal(b1-4)GlcNAc(b1-2)Man(a1-6)]Man(b1-4)GlcNAc(b1-4)GlcNAc
# In short: as §1
# [31] = molecular target: Neu5Ac(a2-6)Gal(b1-4)GlcNAc(b1-2)Man(a1-6)[Gal(b1-4)GlcNAc(b1-2)Man(a1-3)]Man(b1-4)GlcNAc(b1-4)GlcNAc
# In short: as §1
# [32] = molecular target: Neu5Ac(a2-6)Gal(b1-4)GlcNAc(b1-2)Man(a1-6)[GlcNAc(b1-2)Man(a1-3)]Man(b1-4)GlcNAc(b1-4)GlcNAc
# In short: as §1
# [33] = molecular target: Neu5Ac(a2-6)Gal(b1-4)GlcNAc(b1-3)Gal(b1-4)GlcNAc
# In short: as §1
# [34] = molecular target: Neu5Ac(a2-6)Gal(b1-4)GlcNAc(b1-3)Gal(b1-4)[Fuc(a1-3)]GlcNAc(b1-3)Gal(b1-4)[Fuc(a1-3)]GlcNAc
# In short: as §1
# [35] = molecular target: Neu5Ac(a2-6)Gal(b1-4)GlcNAc6S
# In short: as §1
# Neu5Ac(a2-6)GalNAc = molecular target: Neu5Ac(a2-6)GalNAc
# In short: as §1
# [36] = molecular target: Neu5Ac(a2-6)GalNAc(b1-4)GlcNAc
# In short: as §1
# Neu5Ac(a2-8)Neu5Ac = molecular target: Neu5Ac(a2-8)Neu5Ac
# In short: as §1
# [37] = molecular target: Neu5Ac(a2-8)Neu5Ac(a2-3)Gal(b1-4)Glc
# In short: as §1
# [38] = molecular target: Neu5Ac(a2-8)Neu5Ac(a2-3)[GalNAc(b1-4)]Gal(b1-4)Glc
# In short: as §1
# [39] = molecular target: Neu5Ac(a2-8)Neu5Ac(a2-8)Neu5Ac
# In short: as §1
# [40] = molecular target: Neu5Ac(a2-8)Neu5Ac(a2-8)Neu5Ac(a2-3)Gal(b1-4)Glc
# In short: as §1
# [41] = molecular target: Neu5Ac(a2-8)Neu5Ac(a2-8)Neu5Ac(a2-3)[GalNAc(b1-4)]Gal(b1-4)Glc
# In short: as §1
# [42] = molecular target: Neu5Ac(a2-8)Neu5Ac(a2-8)Neu5Ac(a2-8)Neu5Ac(a2-3)[GalNAc(b1-4)]Gal(b1-4)Glc
# In short: as §1
# [43] = molecular target: Neu5Ac(b2-6)Gal(b1-4)GlcNAc
# In short: as §1
# Neu5Ac(b2-6)GalNAc = molecular target: Neu5Ac(b2-6)GalNAc
# In short: as §1
# [44] = molecular target: Neu5Ac9Ac(a2-6)Gal(b1-4)GlcNAc
# In short: as §1
# [45] = molecular target: Neu5Gc(a2-3)Gal(b1-3)GlcNAc
# In short: as §1
# [46] = molecular target: Neu5Gc(a2-3)Gal(b1-3)[Fuc(a1-4)]GlcNAc
# In short: as §1
# Neu5Gc(a2-3)Gal(b1-4)Glc = molecular target: Neu5Gc(a2-3)Gal(b1-4)Glc
# In short: as §1
# [47] = molecular target: Neu5Gc(a2-3)Gal(b1-4)GlcNAc
# In short: as §1
# [48] = molecular target: Neu5Gc(a2-3)Gal(b1-4)[Fuc(a1-3)]GlcNAc
# In short: as §1
# [49] = molecular target: Neu5Gc(a2-6)Gal(b1-4)GlcNAc
# In short: as §1
# Neu5Gc(a2-6)GalNAc = molecular target: Neu5Gc(a2-6)GalNAc
# In short: as §1
# [50] = molecular target: Neu5Gc(b2-6)Gal(b1-4)GlcNAc
# In short: as §1
binder,measurement,setting,value
Surfactant Protein D (Human); Neck + Carbohydrate Recognition Domain (NCRD) (Homo sapiens) (protein) MLLFLLSALVLLTQPLGYLEAEMKTYSHRTMPSACTLVMCSSVESGLPGRDRDGREGPRGEKGDPGLPGAAGQAGMPGQAGPVGPKGDNGSVGEPGPKGDTGPSGPPGPPGVPGPAGREGALGKQGNIGPQGKPGPKGEAGPKGEVGAPGMQGSAGARGLAGPKGERGVPGERGVPGNTGAAGSAGAMGPQGSPGARGPPGLKGDKGIPGDKGAKGESGLPDVASLRQQVEALQGQVQHLQAAFSQYKKVELFPNGQSVGEKIFKTAQFVKPFTEAQLLCTQAGGQLASPRSAAENAALQQLVVAKNEAAFLSMTDSKTEGKFTYPTGESLVYSNWAPGEPNDDGGSEDCVEIFTNGKWNDVACGEKRLVVCEF,glycan array binding signal (z-score),[1],-0.102
same,glycan array binding signal (z-score),[2],-0.429
same,glycan array binding signal (z-score),[3],-0.436
same,glycan array binding signal (z-score),Neu5Ac(a2-3)Gal(b1-4)Glc,-0.497
same,glycan array binding signal (z-score),[4],-0.407
same,glycan array binding signal (z-score),[5],-0.486
same,glycan array binding signal (z-score),[6],-0.494
same,glycan array binding signal (z-score),[7],-0.489
same,glycan array binding signal (z-score),[8],-0.506
same,glycan array binding signal (z-score),[9],-0.316
same,glycan array binding signal (z-score),[10],-0.447
same,glycan array binding signal (z-score),[11],-0.381
same,glycan array binding signal (z-score),[12],-0.53
same,glycan array binding signal (z-score),[13],-0.457
same,glycan array binding signal (z-score),[14],-0.401
same,glycan array binding signal (z-score),[15],-0.453
same,glycan array binding signal (z-score),[16],-0.342
same,glycan array binding signal (z-score),[17],-0.287
same,glycan array binding signal (z-score),[18],-0.365
same,glycan array binding signal (z-score),[19],-0.444
same,glycan array binding signal (z-score),[20],-0.311
same,glycan array binding signal (z-score),[21],-0.267
same,glycan array binding signal (z-score),Neu5Ac(a2-3)GalNAc,-0.398
same,glycan array binding signal (z-score),[22],-0.448
same,glycan array binding signal (z-score),[23],-0.494
same,glycan array binding signal (z-score),[24],-0.442
same,glycan array binding signal (z-score),[25],-0.444
same,glycan array binding signal (z-score),Neu5Ac(a2-6)Gal,-0.471
same,glycan array binding signal (z-score),Neu5Ac(a2-6)Gal(b1-4)Glc,-0.476
same,glycan array binding signal (z-score),[26],-0.412
same,glycan array binding signal (z-score),[27],-0.384
same,glycan array binding signal (z-score),[28],0.257
same,glycan array binding signal (z-score),[29],-0.432
same,glycan array binding signal (z-score),[30],-0.432
same,glycan array binding signal (z-score),[31],-0.459
same,glycan array binding signal (z-score),[32],2.21
same,glycan array binding signal (z-score),[33],-0.44
same,glycan array binding signal (z-score),[34],-0.107
same,glycan array binding signal (z-score),[35],-0.319
same,glycan array binding signal (z-score),Neu5Ac(a2-6)GalNAc,-0.425
same,glycan array binding signal (z-score),[36],-0.343
same,glycan array binding signal (z-score),Neu5Ac(a2-8)Neu5Ac,-0.416
same,glycan array binding signal (z-score),[37],-0.47
same,glycan array binding signal (z-score),[38],-0.378
same,glycan array binding signal (z-score),[39],-0.525
same,glycan array binding signal (z-score),[40],-0.49
same,glycan array binding signal (z-score),[41],-0.425
same,glycan array binding signal (z-score),[42],-0.467
same,glycan array binding signal (z-score),[43],-0.5
same,glycan array binding signal (z-score),Neu5Ac(b2-6)GalNAc,-0.487
same,glycan array binding signal (z-score),[44],-0.317
same,glycan array binding signal (z-score),[45],-0.452
same,glycan array binding signal (z-score),[46],-0.416
same,glycan array binding signal (z-score),Neu5Gc(a2-3)Gal(b1-4)Glc,-0.427
same,glycan array binding signal (z-score),[47],-0.502
same,glycan array binding signal (z-score),[48],-0.397
same,glycan array binding signal (z-score),[49],-0.589
same,glycan array binding signal (z-score),Neu5Gc(a2-6)GalNAc,-0.555
same,glycan array binding signal (z-score),[50],-0.54
